Measured values from the supplement of paper PMC11417369.
Some of the results follow.

test system: PfHDP1 homeodomain (GST-tagged); assay: gcPBM binding intensity (ln(normalized median fluorescence intensity)); higher = stronger DNA binding
Outline: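 DNA-binding domains from P. falciparum, fused to GST and produced in E. coli, were put on an Agilent 4 × 180k double-stranded probe array for 1 h in 1× PBS holding 1% milk, 0.2 mg/ml BSA, 0.5% salmon testes DNA and 0.03% Triton X-100. Probes were primer-extended, 36 bp long and drawn from intergenic genomic regions, with negative controls included. After Alexa488 anti-GST antibody detection and a 488 nm scan, binding intensity was set as the highest Masliner-normalised natural-log median intensity across replicate spots of either probe orientation.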

Sequence | gcPBM binding intensity (ln)
TTTGCCATATGACACACACACATGTAAACCCCCTTT [CACACA_site6873] | 7.1
TAATACAAAAACAATGTTCTTTCAAACATAAACATA [CACACA_negctrl_site1628] | 6.13
TGTTAATTCTTAAGAATTTCCATAATTTCTTCTTTT [CACACA_negctrl_site1065] | 6.33
TATTTATAAAAAAATACATGCATTTTTTTTTTTTTT [TGCATGCA_site65] | 6.26
TATTTTTATTGGTACTGTACCTATTTAGAAATACAT [XGTACX_site6663] | 6.36
ATGATTTCATTTGAGAGTACGTAAAAATAATACGTA [XGTACX_site4958] | 5.94
CTTTTGAACAGTTCATGTACTCAATTTTTTAATAGT [XGTACX_site6498] | 6.36
TAATACCTATGGTATAGTACGTATTATTTTATAGAG [XGTACX_site2078] | 6.05
TATATATATATATATTTTTTTTTTTTATGCACATGG [CACACA_negctrl_site1573] | 10.1
TTTTTTTTTTTGAAATGTACATTCCAAAAACTGATA [XGTACX_site1495] | 6.43
GAGAAAAGGAAATTCACACATATAAAGAAAGATCTA [CACACA_site5420] | 6.03
ATTGATACATCCAATACACACTACATATAATGATGT [CACACA_site8561] | 6.46
TTTTTTATATATACATATATATAAATATATATAACT [GTGCAC_negctrl_site385] | 6.07
GTATGTATGTATATATGTACACATTATTATTTAATG [XGTACX_site5802] | 7.06
ATATTAATAATATATGCATGCATTAACATATTGAAA [TGCATGCA_site951] | 6.7
GTTCATATCTTTTGAGCACACATATATATATATAAA [CACACA_site9099] | 7.13
TTTAGCTATTATAGCTGTACAATGATAAAATAAATT [XGTACX_site6318] | 6.38
ATGATTATAATTTAAAATATTTTACATAACCATTTC [GTGCAC_negctrl_site297] | 6.59
ATAAGTAAAAATAAAAAAAAAATATATATATATATA [CACACA_negctrl_site1816] | 9.31
AATGAATCCTTATATACACACATTATTATATTATAT [CACACA_site3108] | 7.23
ATTAGCAACATTGATAAATATAAACACACGAAAACA [TGCATGCA_negctrl_site97] | 7.19
TTTTTGTTCTATATGGTGCATGTTTATATTCGTATT | 8.47

Sequence | gcPBM binding intensity (ln)
CATGTTTATGCCGTTTGTACATATATATCTAAAAAA [XGTACX_site4336] | 6.68
CACGTATATATATATACACACACATATATATATGTA [CACACA_site7948] | 7.07
ATACCATAAATATTGTGTACATAAATATGTTAGTAA [XGTACX_site6077] | 6.45
TTTTAGAAATTTACTAAACTTTATATAACTATTGAA [TGCATGCA_negctrl_site280] | 5.93
ATTATTAACATATATATACACACGAAAAAATTATAT [CACACA_site625] | 6.96
TAATGAAATATTATGTGTACTTAAAAATTATTAAAT [XGTACX_site5261] | 6.4
AGAATTATTTTATGTTTGCACTTTTTTTTTCTATAA [GTGCAC_site9876] | 7.49
CTATAATATGGTATTACACACTGTTATAAGTATGGC [CACACA_site7068] | 6.41
TATATTTCTTCTATAACATGCAGATATATGAAAATA [TGCATGCA_site971] | 6.22
TATAAATAGAGACACACACACATATAAATAAATATT [CACACA_site7854] | 6.84
ATATATTTTTTGAATACACACATATTATCTGTAATA [CACACA_site4826] | 6.45
TATTCCTAATTGACAACACACACAACAAAAAAGGGA [CACACA_site8350] | 7.24
AAAAATATAAAAATAGCACACATATATACATATATA [CACACA_site7901] | 6.67
TATGGAGAAATAAATAGTACGTATTTTATTTAAAAA [XGTACX_site3129] | 6.47
CTTGCAAAAAGTATATGTACATATATATATATATAT [XGTACX_site5792] | 9.55
TATAAAAATATTGAAAGTACTTATTAAAATATTATT [XGTACX_site3701] | 6.07
ATGTTCGATGATAAATGTACAAAAATAATGGAAGTA [XGTACX_site1916] | 7.41
TTTCCTAGCACATGCACACAAAAAAAAAAAAAAAAA [CACACA_site1404] | 8.18
CGAACACAAACACAAACACACATCAGATATAAATAT [CACACA_site6736] | 6.55
TGTTTGCTTATGTGTTAAATATATATATATATATAT [TGCATGCA_negctrl_site218] | 9.25
ATTTTAGGAAAAAAAAGTACATATAATTTTTTATAT [XGTACX_site6954] | 6.06
TTTTTTTTGATATATACACACAATAAATAAATATAA [CACACA_site7400] | 6.63

Sequence | gcPBM binding intensity (ln)
ATTTATTATTATATCACACATAATATATTAAATGAT [CACACA_site5821] | 6.41
TGTCACTACAAATGAGTGCATTAAATAATTTGGAAA | 9.4
CCATAGATATTTTATACACACATATAATATATTAAG [CACACA_site4363] | 6.75
ATATGCAAAGAGTATAATCAAAATGTAAATAAATAA [GTGCAC_negctrl_site141] | 6.73
AATATTATTTATATTTGTACACAGTAATATAAAATA [XGTACX_site4884] | 6.25
AAAAATAAAGAAACAGGTACGCATATATTAAGATAT [XGTACX_site8097] | 6.63
AATATATTCCACATGTGTACATATATATATATATAT [XGTACX_site8006] | 9.29
TTTCCTTCTACAAAAAATTTTATCAAGAGGAAGTAC [CACACA_negctrl_site926] | 6.55
TGGGCGTCATAATGAACACACAATTATATTATGACT [CACACA_site3910] | 6.06
TTACACAAATAGCTGCATTTATAAAATACAATTAAA [CACACA_negctrl_site241] | 6.18
AAATATATATATTTACGTACATATATACAAATAGAG [XGTACX_site6067] | 6.98
ATATATATATATTTATGTACGAATATGTTTAATTTA [XGTACX_site3986] | 8.78
TTTTGTCAATTTTAGATTTTTCAATACATGGATATT [CACACA_negctrl_site319] | 6.1
ATATATATAATAATATGTACGGAAAAAGCTTAAGCT [XGTACX_site5661] | 6.9
TTATAAAGAACACAGACACACAAAGAAAGAACCAAT [CACACA_site4175] | 6.91
CACAAATAAATACATACACACATATATACTCATATA [CACACA_site4379] | 6.62
GAAAATAAAAAAAATAAAAAAAATAAAAAAAATTAT [XGTACX_negctrl_site443] | 6.24
TTTTGTAACCTATGCACGCACACAAGAAAAAAACAA [CACACA_site3776] | 9.11
TAAATATCTAAAGACTGTACAATTAAATATAAACAT [XGTACX_site1450] | 6.48
AATACATATAAAAGTACACACACACCCATATATATA [CACACA_site8220] | 7.05
ATAGAATACATATATGAACACACAGAGTTTTAAAAA [CACACA_site8879] | 6.7
TATATTATATATATGTGTACATATAAATGTAACAAA [XGTACX_site5025] | 6.45

Sequence | gcPBM binding intensity (ln)
TTTTTTTTTTGATGTTGTACATATATACTATATAAT [XGTACX_site1332] | 6.38
AATATATATCATCACACACACATACATAAATATATA [CACACA_site184] | 6.87
AGTTTATTTGTAAAAAGTACATATTTAAGAAAACTT [XGTACX_site2318] | 6.26
AAATTTGGCAAACACACACACACACCCACACCCACA [CACACA_site8095] | 6.68
TTCTAACTCTAACAAGTGCAATATATATACATAATA | 8.84
TATATATATATATATAGTACATATTAATTAATTTAT [XGTACX_site8198] | 9.23
ATATATTTTAAATATATTATTATTGCATTGTGAAAA [TGCATGCA_negctrl_site106] | 7.29
CACAGACACGGACACACACACACACCCACATATATA [CACACA_site4355] | 6.97
AAAAAAAAAAAAAAAACACACATATATATATATATA [CACACA_site2436] | 9.3
TCTTAAAAAATAGGGACACGTAAATATAATATATAA [CACACA_negctrl_site554] | 6.47
TTATAATAATAGAACTTTATGTAGAAAAAAGGAAAA [XGTACX_negctrl_site116] | 6.22
ACACATACTAAAATGTTGTGAAATATGATAATGTGA [CACACA_negctrl_site851] | 6.52
ATGTGTTGGGAAAAGGCATGCACTTTTTTTTTTTTT [TGCATGCA_site707] | 6.79
TTTTCCTTATATTATGCATGCAGGGTTTGACATTAT [TGCATGCA_site826] | 7.26
TGATAACCTCACAAATGTACGTACGGGGCTAGCATT [XGTACX_site4157] | 6.72
AACAGCATTATTTCTTATTTTTTTTTTGATATATTT [GTGCAC_negctrl_site114] | 6.39
ATATCTATAATAAATACACACATTTATATAGATAAA [CACACA_site7518] | 6.38
AAACTTGACAGACACACACACACATATATAAAAAAA [CACACA_site757] | 6.98
GTTATATTATTCATACGTACCTATATTTCTATTAAC [XGTACX_site3447] | 7.17
TTTAAAACCTTACATACACACAAATATGTAAATATA [CACACA_site6464] | 6.34
CACGCATATATACATACATGCATATATACATCCATG [TGCATGCA_site667] | 6.56
AAAAAAAAAAAAAAAACACACATATAGGTATAAATA [CACACA_site7528] | 6.63
